This is one part of the list.
B1: PhoQ; a variant is named by its letters at X, in order, P23837 (parent)
chain: MKKLLRLFFPLSLRVRFLLATAAVVLVLSLAYGMVALIGYSVSFDKTTFRLLRGESNLFYTLAKWENNKLHVELPENIDKQSPTMTLIYDENGQLLWAQRDVPWLMKMIQPDWLKSNGFHEIEADVNDTSLLLSGDHSIQQQLQEVREDDDDAEMTHSVAVNVYPATSRMPKLTIVVVDTIPVELKSSYMVWSWFIYVLSANLLLVIPLLWVAAWWSLRPIEALAKEVRELEEHNRELLNPATTRELTSLVRNLNRLLKSERERYDKYRTTLTDLTHSLKTPLXXLQXXLRSLRSEKMSVSDAEPVMLEQISRISQQIGYYLHRASMRGGTLLSRELHPVAPLLDNLTSALNKVYQRKGVNISLDISPEISFVGEQNDFVEVMGNVLDNACKYCLEFVEISARQTDEHLYIVVEDDGPGIPLSKREVIFDRGQRVDTLRPGQGVGLAVAREITEQYEGKIVAGESMLGGARMEVIFGRQHSAPKDE

Variants of: B1
Assay: enrichment ratio after two sorts for PhoP signalling (ratio (wild type AVST 3.29)); higher = more functional
Conditions: with PhoP (E. coli)

Variant	enrichment ratio
QGAL	15.6
FPPQ	≤ 0.25
RYEG	≤ 0.25
DQEW	≤ 0.25
DVTW	≤ 0.25
KFAV	≤ 0.25
EEIH	≤ 0.25
LIPV	≤ 0.25
FIPY	≤ 0.25
AANW	≤ 0.25
RDIL	≤ 0.25
FCDM	≤ 0.25
SYVG	9.97
ASIK	1.16
PLTC	≤ 0.25
FHMT	≤ 0.25
NNDH	≤ 0.25
NPLM	≤ 0.25
DEYA	≤ 0.25
RCWE	≤ 0.25
PPKG	≤ 0.25
PVTD	≤ 0.25
WITV	≤ 0.25
QTIQ	≤ 0.25

Variant	enrichment ratio
GGRM	≤ 0.25
EFIV	≤ 0.25
MSYM	10.1
DDLM	≤ 0.25
EAPD	≤ 0.25
REMH	≤ 0.25
PNDY	≤ 0.25
FDVK	≤ 0.25
QRTE	≤ 0.25
LVPN	≤ 0.25
HANP	≤ 0.25
GIGG	≤ 0.25
NGAC	≤ 0.25
MSNT	≤ 0.25
NDSE	≤ 0.25
KQWH	≤ 0.25
IILW	≤ 0.25
AHLV	1.12
NRHK	≤ 0.25
KPRH	≤ 0.25
YKMM	0.335
EDDM	≤ 0.25
PGMD	≤ 0.25
FFRY	≤ 0.25

Variant	enrichment ratio
KFFP	≤ 0.25
TLLT	0.528
RVNV	≤ 0.25
TSWE	10.9
TSQT	2.63
RMQW	≤ 0.25
GTMD	≤ 0.25
RMKM	≤ 0.25
YPDQ	≤ 0.25
DHCI	≤ 0.25
QVDF	15.1
KQVW	≤ 0.25
TLNF	≤ 0.25
RMLQ	≤ 0.25
LCLH	≤ 0.25
TISV	12.8
SHDG	1.66
YWWT	≤ 0.25
DTFA	1.11
QQME	≤ 0.25
HNMM	≤ 0.25
TNAW	≤ 0.25
DQWD	≤ 0.25
EGNN	≤ 0.25

Variant	enrichment ratio
ATVG	6.86
VTKT	≤ 0.25
SCYR	≤ 0.25
LWIQ	≤ 0.25
IQHL	≤ 0.25
AILM	5.76
LSEF	≤ 0.25
YNQL	≤ 0.25
FAWR	≤ 0.25
MIRE	≤ 0.25
TRSE	≤ 0.25
WDWE	≤ 0.25
EEFT	≤ 0.25
VATG	≤ 0.25
KNWR	≤ 0.25
AREQ	≤ 0.25
ELVD	≤ 0.25
NVSQ	≤ 0.25
QWIH	≤ 0.25
MHTP	≤ 0.25
QPQV	≤ 0.25
ERQT	≤ 0.25
NCKN	≤ 0.25
PTCQ	≤ 0.25

Variant	enrichment ratio
AWIA	≤ 0.25
LCEG	≤ 0.25
CISG	≤ 0.25
FVKV	≤ 0.25
REAS	≤ 0.25
AMKF	≤ 0.25
YIKA	≤ 0.25
PWWA	≤ 0.25
TFWK	≤ 0.25
TDWN	≤ 0.25
LMMV	≤ 0.25
HFWI	≤ 0.25
EFAN	≤ 0.25
VNFY	≤ 0.25
HKVV	≤ 0.25
HCHL	≤ 0.25
YMIN	1.07
MNAW	≤ 0.25
FPIF	≤ 0.25
ILFV	≤ 0.25
VGHR	≤ 0.25
LILL	≤ 0.25
VFNC	≤ 0.25
HDRL	≤ 0.25

Variant	enrichment ratio
WTTA	≤ 0.25
VLLK	≤ 0.25
VTQQ	≤ 0.25
WEDM	≤ 0.25
PQEI	≤ 0.25
FLWV	≤ 0.25
YYPR	≤ 0.25
HWGL	≤ 0.25
MRGA	≤ 0.25
FRMM	≤ 0.25
QPQY	≤ 0.25
RPGM	≤ 0.25
NLCG	≤ 0.25
GLPM	≤ 0.25
QFLT	≤ 0.25
DMQC	≤ 0.25
FCES	≤ 0.25
HWVI	≤ 0.25
IQCL	≤ 0.25
MILK	1.25
VHNL	≤ 0.25
GYAH	≤ 0.25
CYNK	≤ 0.25
PSWG	≤ 0.25

Variant	enrichment ratio
TKTN	≤ 0.25
WKHQ	≤ 0.25
DGVV	≤ 0.25
MGML	2.81
VDQV	≤ 0.25
TLMV	5.76
HHDR	≤ 0.25
PVRP	≤ 0.25
PASQ	≤ 0.25
LATN	≤ 0.25
NNVK	≤ 0.25
MLME	≤ 0.25
LNDS	≤ 0.25
INPT	≤ 0.25
AFTC	≤ 0.25
KDGT	≤ 0.25
CKTF	≤ 0.25
GQHT	≤ 0.25
FHDL	≤ 0.25
VMKP	≤ 0.25
EPCN	≤ 0.25
TEWF	22
GKKP	≤ 0.25
FRAH	≤ 0.25

Variant	enrichment ratio
NLEV	≤ 0.25
ARIL	4.85
CVWS	≤ 0.25
GRHP	≤ 0.25
RTCN	≤ 0.25
HVSF	≤ 0.25
DKQA	≤ 0.25
VDTK	≤ 0.25
AIIW	≤ 0.25
TNME	≤ 0.25
IEYM	≤ 0.25
MQCY	3.23
TLEY	≤ 0.25
LGEH	≤ 0.25
KGNY	≤ 0.25
MFHL	≤ 0.25
DLKR	≤ 0.25
QETC	4.56
MFGE	≤ 0.25
YGED	≤ 0.25
KPVW	≤ 0.25
AKRR	≤ 0.25
EHIG	≤ 0.25
GFVI	≤ 0.25

Variant	enrichment ratio
ITVQ	≤ 0.25
AIRT	≤ 0.25
AAVF	1.3
YRSG	≤ 0.25
AMSM	15.1
SHTM	6.19
VQDF	≤ 0.25
INPY	≤ 0.25
PPRH	≤ 0.25
NYAK	≤ 0.25
HTAF	≤ 0.25
IMCC	≤ 0.25
SKYE	≤ 0.25
LEKW	≤ 0.25
PEAF	≤ 0.25
KQNI	≤ 0.25
QGPF	≤ 0.25
YLSI	0.303
WTFL	≤ 0.25
VKPG	≤ 0.25
SYEL	≤ 0.25
EFFP	≤ 0.25
PSDY	≤ 0.25
YCKR	≤ 0.25

Variant	enrichment ratio
PANL	≤ 0.25
LFMV	≤ 0.25
ELVK	≤ 0.25
QGTN	≤ 0.25
YNTR	≤ 0.25
YTCA	≤ 0.25
QFYT	≤ 0.25
YTDR	≤ 0.25
SMRT	≤ 0.25
SKHG	≤ 0.25
VFRF	≤ 0.25
SHHI	≤ 0.25
ALLR	1.77
GCQR	≤ 0.25
AGAS	4.36
DPDF	≤ 0.25
ETDS	≤ 0.25
STLD	10.5
PLFC	≤ 0.25
NHQH	≤ 0.25
RGKG	≤ 0.25
HHRM	≤ 0.25
NHWG	≤ 0.25
QASS	8.4

Variant	enrichment ratio
MIAH	9.47
IRPF	≤ 0.25
AFWI	≤ 0.25
YHIG	≤ 0.25
VKFV	≤ 0.25
SGKW	≤ 0.25
YYMG	≤ 0.25
IKWG	≤ 0.25
MPVD	≤ 0.25
DNLE	≤ 0.25
SWWG	≤ 0.25
KCTY	≤ 0.25
GTKL	≤ 0.25
WSYE	≤ 0.25
TRTH	≤ 0.25
TCMY	5.37
DWAK	≤ 0.25
HDGA	≤ 0.25
EFWG	≤ 0.25
MKCP	≤ 0.25
LWDQ	≤ 0.25
MGFH	5.64
VISY	≤ 0.25
QYIC	≤ 0.25

Variant	enrichment ratio
HSAT	≤ 0.25
VSCK	≤ 0.25
FHMW	≤ 0.25
IREF	≤ 0.25
YWYT	≤ 0.25
KREF	≤ 0.25
KGPY	≤ 0.25
DCSQ	≤ 0.25
AIVQ	10.4
VHNC	≤ 0.25
GEIR	≤ 0.25
TDDE	≤ 0.25
EKWE	≤ 0.25
EYTQ	≤ 0.25
IESQ	≤ 0.25
NEIA	≤ 0.25
DLST	≤ 0.25
NKTS	≤ 0.25
MDAQ	≤ 0.25
VMKY	≤ 0.25
WKWT	≤ 0.25
DQQK	≤ 0.25
YQTR	≤ 0.25
TDIN	≤ 0.25

Variant	enrichment ratio
HTVK	≤ 0.25
NTFP	≤ 0.25
ITPC	≤ 0.25
PWQM	≤ 0.25
QRPM	≤ 0.25
VFMD	≤ 0.25
VYQR	≤ 0.25
NRNG	≤ 0.25
FMFS	≤ 0.25
EGLE	≤ 0.25
YDKN	≤ 0.25
TCVI	≤ 0.25
VDEP	≤ 0.25
LAEG	≤ 0.25
ALWF	≤ 0.25
GCAT	≤ 0.25
QCCP	≤ 0.25
NFQD	≤ 0.25

Reference: a collection of fitness landscapes (doi:10.1126/science.1257360)
